# This is one part of the list. Binding of human antibodies (heavy:light variable regions, tested as scFv in one mRNA-display pool) to influenza hemagglutinin, with or without the stem antibody CR9114 bound first. Score = (mean enrichment − median) / interquartile range of that screen; higher = more enriched, 0 = typical non-binder. Active = above the paper's cut-off per screen: stems 28; unblocked H1 Solomon Islands 5, H1 Michigan 3, H3 5, H5 19, H7 2.85, both B 5; blocked 9, 7, H5 10, H7 10, B Phuket 10, B Lee 11.5. Scores are scaled within each screen and are no affinities; replicates correlate at about 0.6 to 0.9, and antibodies rare in the pool are noisier.
# B1: 039-10-5C05 (protein)
# chain 1: QVQLVESGGGLVQPGRSLRLSCAASGFSLSTYPMHWVRQAPGKGLDWVATMSYDGSHKDYADSVKGRFTISTDTSKNTLYLQMNSLRTDDTAVYYCARPRGGGYNYFRADSFDSWGQGTLVTVSS
# chain 2: DIQMTQSPSSLSASVGDRVTITCRTSQRVSTYLNWYQQKPGKSPKLLIYLASSLQSGVPSRFSGSGSGTDFSLTISSLQPEDFATYYCQQSYSMPLTFGGGTKVEIK
# B2: C1-2-E05 (protein)
# chain 1: VQLVESGGGLVQPGGSLRLSCAASGFSFSLYSMNWVRQAPGKRLEWISYISSSSGTKLYADSVKGRLTTSRDNAKSSLYLQMTNLRPEDTAVYYCVREEVIVGGIPFDYWGQGALVTVSS
# chain 2: EIVMTQSPSTLSVSPGARATLSCRASQSVGSSLAWYQQKPGQPPRLLIFGASTRATGVPARFSGSGYGTEFTLTISSLQSEDSAVYHCHQYHDWPPWTFGQGTKVEIK
# B3: 014-10-3C04 (protein)
# chain 1: QVQLVESGGGVVRPGRSQSLSCAASGFTITPYTMFWVRQAPGKGLEWVAMILYDGSSTDYAGPVKGRFTISRDNSKNTLNLQMNSLRAADTAVYYCARGYGSGKSHYYFDYWGQGTLVTVSS
# chain 2: EIVLTQSPGTLSLSPGERATLSCRASQSVSSFYLAWYQQKPGQAPRLLLYGTSNRATGIPDRFSGSGSGTDFTLTISRLEPEDFAVYYCQQYDTSLTFGPGTKVDIK
# B4: 008-10-5E02 (protein)
# chain 1: EVQLVESGGGLVRPGGSLRLSCAASEINVRNVWMSWVRQAPGKGPEWVGRIKREKDGGTIDYAAPVKGRFTISRDASKNMLFLLMESLQTEDTAVYYCTTDFLESLLLGSGPPRETGHFDTWGQGTLVTVSS
# chain 2: DIQMTQSPSSLSASVGDRVTITCRASQSISTYLNWYQRKPGKAPKFLIYAASNLQSGVPSRFSGSGSGTDFTLTISNLQPEDFATYYCQQSYSTPSWTFGQGTKVEIK
# B5: W85-2D08 (protein)
# chain 1: QVQLVQSGAEVKKPGASVKVSCKASGYSFTTFDINWVRQATGQGLEWVGWMNPNSGNTGYAQKFQGRVSMTRNTSKSTAYMELSSLTSEDTAVYFCARGVGFCDTTSCYGSWFDPWGQGTLVTVSS
# chain 2: EIVMTQSPATLSVSPGERATLSCWASQNVSSNLAWYQQKPGQAPRLLIYGATTRATGVPARFSGSGSRTEFTLTISSLQFEDFAVYYCQPYSNWRPITFGQGTRLEIK
# B6: AG13-3F04 (protein)
# chain 1: VQLVQSGAEMQKPGASVKVSCKASGFTFTGFYLHWVRQAPGQGLEWMGWINLNSGDTDTAQKFQGRVTMTSDTSISTAYMDLSSLKSDDTAVYYCATWYISGWYDGMDVWGQGTTVTVSS
# chain 2: DIVMTQSPLSLPVTPGEAASISCRSSQSLLNTNGYTYLDWFLQKPGQSPQLLIYLGFNRASGVPDRFSGSGSGTYFTLKISRVEAEDVGVYYCMQALQTPRTFGQGTKVEIK
# B7: R95-2G12 (protein)
# chain 1: EVQLVESGGDLVQPGRSLRLSCAASGFSFDEYAMHWVRQPPGKGLEWVSGINWDGHSMAYADSVKGRFTISRDNAKNSLYLQMHSLRPEDTAFYYCAKSSYGLVAPNWFDPWGPGTLVTVSS
# chain 2: DIQMTQSPSSLSASVGDRVTITCRASQSIISYLNWYQQKPGKAPKLLIYDASILQGGVPSRFSGSGSGTDFTLTISGVQPEDFATYYCQQSYSAPVSFGQGTKLDIK
# B8: K77-2E05 (protein)
# chain 1: QVQLVQSGAEVKRPGASVKVSCKASGYTFTSHYVTWVRQAPGQGLEWMGPIIPSAGSISYAQKFQGRVVMTRDTSTSTVYMELSSLRSEDTAVYYCARVGVQVERELRYYGMDVWGQGTTVTVSS
# chain 2: EIVLTQSPGTLSLSPGERATLSCRASQSVSSSYLAWYQQKPGQAPRLLIYGASSRATGVPDRFSGSGSGTDFILTISRLEPEDFAVYYCQQYGFSGTTFGQGTRLEI
# B9: 240-14-IgG-2E03 (protein)
# chain 1: QVQLQEWGAGLLKPSETLSLTCAVSGDSFSDYYWSWIRQPPGKGLEWIGEVYHDGSTNYNPSLKSRVTISIDTSKNQFSLKLTSVTAADTAVYFCARGVLGELTAIHFDYWGQGALVTVSS
# chain 2: EIVMTQSPATLSVSPGERATLSCRASQSVSSLLVWYQQKPGQTPRLLIYGASTRAPGIPARFSGSGSGTEFTLTISSLQSEDFAVYYCQQWYTFGQGTKVEIK
# B10: AG6-3E02 (protein)
# chain 1: QLQESGPRLVRPSETLSLTCTVSGGSISSSTYYWGWIRQPPGKGLEWIGSVFYSGTTYKIPSLNSRVTISIDTSKKEFSLTLTSVTAADTAVYYCARHTYNRGSWFDHPWNYFYGMDIWGQGTTVTVSS
# chain 2: DIQMTQSPSSLSASVGDRVTITCRASHNINNYLNWYQQKPGKPPKLLIYAASSLRSGVPSRFSGSGSETDFTLTISTLEPEDFVTYYCQQSFSTPFTFGQGTKVEIK
# B11: 16.p.01 (protein)
# chain 1: QVQLVQSGAEVKRPGASVNVSCKTSGYTFTDYYMHWVRQAPGQGLEWMGWINPNNGGTNYAQRFQGRVTMTRDTSLSTVYMELTSLRSDDTAVYYCATYYFESSGYFRLDYWGRGTLVTVSS
# chain 2: DIQMTQSPSSLSASVGTRVPITSRASKSIARFLNRNQQKPGRAPKFMIYYASIWERGGPSRFSGGGSGTDFNFTISVLQPEDFATYYCQQSNSAPTTSGQGNKIEIK
# B12: antibody 3A03 (protein)
# chain 1: VQLVESGGGLVQPGGSLRLSCAASGFSFSSYRMNWVRQAPGKGLQWVSYISQSGGTVYYADSVKGRFTISRDNAKNSLYLQMISLRDEDTAVYFCARDEWADDYGNYYLDYWGQGTLVTVSS
# chain 2: EIVLTQSPATLSLSPGERATLSCRASQSVSSFLAWYQKKPGQAPRLLIYDAFNRATGVPARFSGSGSGTDFTLTISSLEPEDFAVYYCQQRSNWPPLTFGGGTKVEIK
# Target: Influenza A H1N1 A/Michigan/45/2015 hemagglutinin ectodomain
# Experiment: mRNA display binding score; higher = more enriched on the antigen
# Conditions: antigen blocked with: 2 µM CR9114 IgG
# Procedure: (§1)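 A pool of natively paired antibodies, displayed as scFv on mRNA, was selected once on antigen-coated beads and sequenced before and after; two replicates.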
row,Binder,mRNA display binding score
1,B1,inactive: -0.0896
2,B2,inactive: -0.094
3,B3,inactive: -0.62
4,B4,active: 18
5,B5,inactive: 0.187
6,B6,inactive: 0.138
7,B7,inactive: -0.356
8,B8,inactive: 0.18
9,B9,inactive: 1.21
10,B10,inactive: -0.399
11,B11,inactive: -0.362
12,B12,inactive: -0.0135

# Same assay, conditions: antigen blocked with: nothing
row,Binder,mRNA display binding score
1,B1,inactive: -0.371
2,B2,inactive: -0.0579
3,B3,inactive: -0.8
4,B4,inactive: 0.518
5,B5,inactive: -0.539
6,B6,inactive: 0.897
7,B7,inactive: -0.676
8,B8,inactive: -0.0365
9,B9,inactive: 1.31
10,B10,inactive: -0.524
11,B11,inactive: 1.21
12,B12,inactive: 0.0301

# Target: Influenza A H1N1 A/Solomon Islands/3/2006 hemagglutinin ectodomain
# Experiment: as above
# Conditions: antigen blocked with: 2 µM CR9114 IgG
# Procedure: as §1
row,Binder,mRNA display binding score
1,B1,inactive: -0.351
2,B2,inactive: -0.256
3,B3,inactive: -0.405
4,B4,inactive: 4.45
5,B5,inactive: 0.292
6,B6,inactive: 0.181
7,B7,inactive: -0.165
8,B8,inactive: -0.441
9,B9,inactive: 1.22
10,B10,active: 11
11,B11,inactive: 0.961
12,B12,inactive: -0.197

# Same assay, conditions: antigen blocked with: nothing
row,Binder,mRNA display binding score
1,B1,inactive: -0.563
2,B2,inactive: -0.0642
3,B3,inactive: -0.637
4,B4,inactive: 1.47
5,B5,inactive: -0.254
6,B6,inactive: -0.129
7,B7,inactive: -0.673
8,B8,inactive: -0.21
9,B9,inactive: 1.72
10,B10,active: 7.99
11,B11,inactive: -0.0914
12,B12,inactive: -0.274

# Target: Influenza A H3N2 A/Singapore/INFIMH-16-0019/2016 hemagglutinin ectodomain
# Experiment: as above
# Conditions: antigen blocked with: nothing
# Procedure: as §1
row,Binder,mRNA display binding score
1,B1,inactive: 0.345
2,B2,inactive: 0.186
3,B3,inactive: -0.54
4,B4,inactive: 0.468
5,B5,inactive: 1.32
6,B6,inactive: 1.14
7,B7,inactive: -0.335
8,B8,inactive: -0.532
9,B9,inactive: 1.05
10,B10,inactive: 0.0617
11,B11,inactive: 0.217
12,B12,inactive: -0.107

# Target: Influenza A H5N1 A/Qinghai/1A/2005 hemagglutinin ectodomain
# Experiment: as above
# Conditions: antigen blocked with: 2 µM CR9114 IgG
# Procedure: as §1
row,Binder,mRNA display binding score
1,B1,inactive: -0.44
2,B2,inactive: -0.325
3,B3,inactive: -0.619
4,B4,inactive: 0.629
5,B5,inactive: -0.143
6,B6,inactive: 0.183
7,B7,inactive: -0.648
8,B8,inactive: -0.303
9,B9,inactive: 0.233
10,B10,inactive: -0.623
11,B11,inactive: 1.13
12,B12,inactive: -0.292

# Same assay, conditions: antigen blocked with: nothing
row,Binder,mRNA display binding score
1,B1,inactive: -0.302
2,B2,inactive: -0.18
3,B3,inactive: -0.385
4,B4,inactive: 0.00891
5,B5,inactive: -0.461
6,B6,inactive: 0.374
7,B7,inactive: -0.498
8,B8,inactive: -0.342
9,B9,inactive: 0.225
10,B10,inactive: -0.293
11,B11,inactive: 0.4
12,B12,inactive: -0.161

# Target: Influenza A H7N9 A/Shanghai/2/2013 hemagglutinin ectodomain
# Experiment: as above
# Conditions: antigen blocked with: 2 µM CR9114 IgG
# Procedure: as §1
row,Binder,mRNA display binding score
1,B1,inactive: -0.214
2,B2,inactive: 0.0079
3,B3,inactive: -0.51
4,B4,inactive: -0.841
5,B5,inactive: -0.157
6,B6,inactive: 0.285
7,B7,inactive: -0.291
8,B8,inactive: 0.848
9,B9,inactive: 0.383
10,B10,inactive: -0.881
11,B11,inactive: 0.588
12,B12,inactive: 0.363

# Same assay, conditions: antigen blocked with: nothing
row,Binder,mRNA display binding score
1,B1,inactive: -0.409
2,B2,inactive: 0.0873
3,B3,inactive: -0.81
4,B4,inactive: -0.431
5,B5,inactive: -0.4
6,B6,inactive: 0.654
7,B7,inactive: -0.628
8,B8,inactive: 0.202
9,B9,inactive: 1.62
10,B10,inactive: -0.632
11,B11,inactive: 1.26
12,B12,inactive: 0.547

# Target: Influenza B/Lee/1940 hemagglutinin ectodomain
# Experiment: as above
# Conditions: antigen blocked with: 2 µM CR9114 IgG
# Procedure: as §1
row,Binder,mRNA display binding score
1,B1,inactive: -0.256
2,B2,inactive: -0.0653
3,B3,inactive: 0.111
4,B4,inactive: 0.144
5,B5,inactive: -0.561
6,B6,inactive: 0.0493
7,B7,inactive: -0.301
8,B8,inactive: 0.0854
9,B9,inactive: -0.238
10,B10,inactive: -0.259
11,B11,inactive: 0.912
12,B12,inactive: 0.145

# Same assay, conditions: antigen blocked with: nothing
row,Binder,mRNA display binding score
1,B1,inactive: -0.396
2,B2,inactive: -0.192
3,B3,inactive: -0.308
4,B4,inactive: -0.347
5,B5,inactive: 0.0351
6,B6,inactive: -0.159
7,B7,inactive: -0.365
8,B8,inactive: -0.289
9,B9,inactive: -0.154
10,B10,inactive: -0.333
11,B11,inactive: 0.0494
12,B12,inactive: -0.207

# Target: Influenza B/Phuket/3073/2013 hemagglutinin ectodomain
# Experiment: as above
# Conditions: antigen blocked with: 2 µM CR9114 IgG
# Procedure: as §1
row,Binder,mRNA display binding score
1,B1,inactive: -0.215
2,B2,inactive: -0.0448
3,B3,inactive: -0.695
4,B4,inactive: -0.273
5,B5,inactive: -0.59
6,B6,inactive: 6.46
7,B7,inactive: -0.6
8,B8,inactive: -0.24
9,B9,inactive: 1.25
10,B10,inactive: -0.365
11,B11,inactive: 0.541
12,B12,inactive: -0.102

# Same assay, conditions: antigen blocked with: nothing
row,Binder,mRNA display binding score
1,B1,inactive: -0.318
2,B2,inactive: -0.258
3,B3,inactive: -0.437
4,B4,inactive: -0.295
5,B5,inactive: -0.276
6,B6,inactive: 2.14
7,B7,inactive: -0.401
8,B8,inactive: -0.0506
9,B9,inactive: 0.059
10,B10,inactive: -0.247
11,B11,inactive: 0.0329
12,B12,inactive: -0.278

# Source: the supplement of paper PMC11383711
